Experimental data as given in the RNAGym collection of RNA variant scans (doi:10.1101/gad.245936.114).
Variants at the floor of the assay are shown more often than the library holds them.

B1: tRNA (parent)
chain: CUCUCGGUAGCCAAGUUGGUUUAAGGCGCAAGACUUUAAUUUAUCACUACGAAAUCUUGAGAUCGGGCGUUCGACUCGCCCCCGGGAGAUUUUUUCCUCGAGCAA

Variants of: B1
Experiment: nonsense suppression (GFP-seq) (ratio to wild type); higher = more function; SUP4oc tRNA, yeast GFP reporter sort-seq
How it was run: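 Nonsense suppression (GFPSEQ) is the median GFP/RFP ratio of each sorting bin, weighted by the variant's estimated share of cells in that bin and expressed relative to the unmutated parent tRNA. Yeast strains carried genome-integrated variants of an ochre-suppressor tRNA from a library with ~3% random mutations, plus a galactose-driven GFP ochre reporter and RFP, and were grown in raffinose/galactose medium containing 80 mg/L adenine. Cells were sorted into GFP/RFP bins, each bin was Illumina-sequenced (phred ≥30), and variants were kept only with ≥100 reads and ≥30 cells.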

| Variant | nonsense suppression |
| --- | --- |
| G15A C77U G85A G88U | ≤ 0.026 |
| G15A C80U | 0.167 |
| G15A C83A | ≤ 0.026 |
| G15A G18A A31G U57C U58C | ≤ 0.026 |
| G15A G28A A60U G86C | ≤ 0.026 |
| G15A G59C G66C C77G | ≤ 0.026 |
| G15A G65C | ≤ 0.026 |
| G15A G65C G88C | ≤ 0.026 |
| G15A G66A | ≤ 0.026 |
| G15A G67A C72A | ≤ 0.026 |
| G15A G69A G73U | ≤ 0.026 |
| G15A G69U | ≤ 0.026 |
| G15A G73C C75G | ≤ 0.026 |
| G15A G78U | ≤ 0.026 |
| G15A U16C G18A G61C G88A | ≤ 0.026 |
| G15A U16C G66A G67A | ≤ 0.026 |
| G15A U17A U35G C56U U63C G85C | ≤ 0.026 |
| G15A U20G | 0.189 |
| G15A U20G G84C | ≤ 0.026 |
| G15A U21A C82G | ≤ 0.026 |
| G15A U21A G65A | ≤ 0.026 |

| Variant | nonsense suppression |
| --- | --- |
| G15A U21C C34G U35G U58A | ≤ 0.026 |
| G15A U22G G26C A62U C82G | ≤ 0.026 |
| G15A U55G U71G C82U | ≤ 0.026 |
| G15A U57C G61C | ≤ 0.026 |
| G15A U58A C72A | ≤ 0.026 |
| G15A U58G A62C U70A | ≤ 0.026 |
| G15A U63A A89U | ≤ 0.026 |
| G15A U63C | ≤ 0.026 |
| G15C A23G G59U G66U | ≤ 0.026 |
| G15C A23G G66A | ≤ 0.026 |
| G15C A23G U71A | ≤ 0.026 |
| G15C A23U | ≤ 0.026 |
| G15C A24C G28U G61U A74C G85U | ≤ 0.026 |
| G15C A24C G69A U71G | ≤ 0.026 |
| G15C A24G A89U | ≤ 0.026 |
| G15C A24G C77G | ≤ 0.026 |
| G15C A24G C77U | ≤ 0.026 |
| G15C A30U U55G G65C G84U | ≤ 0.026 |
| G15C A30U U63A | ≤ 0.026 |
| G15C A31U C34U | ≤ 0.026 |
| G15C A33C | ≤ 0.026 |

| Variant | nonsense suppression |
| --- | --- |
| G15C A33U G61A | ≤ 0.026 |
| G15C A60G | ≤ 0.026 |
| G15C A60U | ≤ 0.026 |
| G15C A87G | ≤ 0.026 |
| G15C A87U | ≤ 0.026 |
| G15C C27A C34U G61C | ≤ 0.026 |
| G15C C27G C34U | ≤ 0.026 |
| G15C C27G G59A G78C | ≤ 0.026 |
| G15C C27U C34U A54C | ≤ 0.026 |
| G15C C29G | ≤ 0.026 |
| G15C C34A C82G | 0.816 |
| G15C C56U A87C | ≤ 0.026 |
| G15C C64U | ≤ 0.026 |
| G15C G18A A31U A62U | ≤ 0.026 |
| G15C G18A U58A G61U G73U A74U | ≤ 0.026 |
| G15C G18C U21C A31C C68G G78A | ≤ 0.026 |
| G15C G19U G66C | ≤ 0.026 |
| G15C G25A A31C | ≤ 0.026 |
| G15C G25C A54U | ≤ 0.026 |
| G15C G25U | ≤ 0.026 |
| G15C G26U U57C G78C | ≤ 0.026 |

| Variant | nonsense suppression |
| --- | --- |
| G15C G28U A62C G86C | ≤ 0.026 |
| G15C G59C G61C | ≤ 0.026 |
| G15C G59U | ≤ 0.026 |
| G15C G61A C77G | ≤ 0.026 |
| G15C G65A C77A | ≤ 0.026 |
| G15C G65A G78A C80A | ≤ 0.026 |
| G15C G65C | ≤ 0.026 |
| G15C G67C G69U U71C | ≤ 0.026 |
| G15C G69A G78C | ≤ 0.026 |
| G15C G69C G85U | ≤ 0.026 |
| G15C G69U G78A | ≤ 0.026 |
| G15C G73U | ≤ 0.026 |
| G15C G84A | ≤ 0.026 |
| G15C G88A | ≤ 0.026 |
| G15C U16C | ≤ 0.026 |
| G15C U17C G67C C83U G88A | ≤ 0.026 |
| G15C U17C G84C | ≤ 0.026 |
| G15C U17C U63G G65C U76G | ≤ 0.026 |
| G15C U17G | ≤ 0.026 |
| G15C U20A A60U | ≤ 0.026 |
